Test results from the supplement of paper PMC4967469.
The IC50 comes from the fitted curve, where viability falls to half of the control; a limit (>, <) means that the fit lies beyond the doses tested. The AUC spans the tested range (256-fold, ending at the top dose) of the same fit: 1 means no effect, lower means more sensitive. The top dose, if marked as inferred, is not printed in the source and was worked back from the curve model. Drugs with an entry number were screened twice under separate entries, and the two screens often disagree.

Compound: NC(=O)[C@@H](CCC(F)(F)F)N(Cc1ccc(-c2ncon2)cc1F)S(=O)(=O)c1ccc(Cl)cc1 [BMS-708163]
Assay: Viability of human cancer cell lines after 72 h of drug (GDSC screen)
Conditions: screen: GDSC drug entry 205; top dose inferred
Protocol: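 Human cancer cell lines in 384-well plates, medium with 10% serum, drug for 72 h over a 256-fold dose range (nine 2-fold or five 4-fold steps up to the top dose). Adherent lines were fixed and stained with the nucleic acid dye Syto60, suspension lines read with resazurin; signal relative to control wells, capped at 0 and 100%. One two-parameter sigmoid per drug and line, fitted in a mixed model over all curves with the slope shared within a line.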

Cell Line | AUC | IC50
ROS-50 (B-cell leukaemia, suspension, top dose 10.24 µM) | 0.984 | > 10.2 µM
RPMI-2650 (head and neck, adherent, top dose 10.24 µM) | 0.946 | > 10.2 µM
RPMI-6666 (Hodgkin lymphoma, suspension, top dose 10.24 µM) | 0.943 | > 10.2 µM
RPMI-7951 (melanoma, adherent, top dose 10.24 µM) | 0.978 | > 10.2 µM
RPMI-8226 (myeloma, suspension, top dose 10.24 µM) | 0.99 | > 10.2 µM
RPMI-8402 (T-cell lymphoblastic leukaemia, suspension, top dose 2.56 µM) | 0.917 | > 2.56 µM
RPMI-8866 (chronic myeloid leukaemia, suspension, top dose 10.24 µM) | 0.987 | > 10.2 µM
RS4-11 (leukaemia, suspension, top dose 10.24 µM) | 0.986 | > 10.2 µM
RT4 (bladder, adherent, top dose 10.24 µM) | 0.961 | > 10.2 µM
RT-112 (bladder, adherent, top dose 10.24 µM) | 0.985 | > 10.2 µM
RVH-421 (melanoma, adherent, top dose 10.24 µM) | 0.966 | > 10.2 µM
RXF393 (kidney, adherent, top dose 10.24 µM) | 0.973 | > 10.2 µM
Raji (Burkitt lymphoma, suspension, top dose 10.24 µM) | 0.99 | > 10.2 µM
Ramos-2G6-4C10 (Burkitt lymphoma, suspension, top dose 10.24 µM) | 0.988 | > 10.2 µM
SAS (head and neck, adherent, top dose 10.24 µM) | 0.982 | > 10.2 µM
SAT (head and neck, adherent, top dose 10.24 µM) | 0.952 | > 10.2 µM
SBC-1 (small cell lung carcinoma, suspension, top dose 10.24 µM) | 0.989 | > 10.2 µM
SBC-3 (small cell lung carcinoma, adherent, top dose 10.24 µM) | 0.988 | > 10.2 µM
SBC-5 (small cell lung carcinoma, adherent, top dose 10.24 µM) | 0.992 | > 10.2 µM
SCC-3 (B-cell lymphoma, suspension, top dose 10.24 µM) | 0.996 | > 10.2 µM

Cell Line | AUC | IC50
SCC-4 (head and neck, adherent, top dose 10.24 µM) | 0.982 | > 10.2 µM
SCC-9 (head and neck, adherent, top dose 10.24 µM) | 0.981 | > 10.2 µM
SCC-15 (head and neck, adherent, top dose 10.24 µM) | 0.974 | > 10.2 µM
SCC-25 (head and neck, adherent, top dose 10.24 µM) | 0.983 | > 10.2 µM
SCH (stomach, adherent, top dose 10.24 µM) | 0.987 | > 10.2 µM
SF126 (glioma, adherent, top dose 10.24 µM) | 0.986 | > 10.2 µM
SF268 (glioma, adherent, top dose 10.24 µM) | 0.985 | > 10.2 µM
SF295 (glioma, adherent, top dose 10.24 µM) | 0.985 | > 10.2 µM
SF539 (glioma, adherent, top dose 10.24 µM) | 0.99 | > 10.2 µM
SH-4 (melanoma, adherent, top dose 10.24 µM) | 0.962 | > 10.2 µM
SHP-77 (small cell lung carcinoma, semi-adherent, top dose 10.24 µM) | 0.987 | > 10.2 µM
SIG-M5 (acute myeloid leukaemia, suspension, top dose 10.24 µM) | 0.986 | > 10.2 µM
SIMA (neuroblastoma, adherent, top dose 10.24 µM) | 0.984 | > 10.2 µM
SISO (cervix, adherent, top dose 10.24 µM) | 0.988 | > 10.2 µM
SJRH30 (rhabdomyosarcoma, adherent, top dose 10.24 µM) | 0.986 | > 10.2 µM
SJSA-1 (bone, adherent, top dose 10.24 µM) | 0.984 | > 10.2 µM
SK-CO-1 (large intestine, adherent, top dose 10.24 µM) | 0.985 | > 10.2 µM
SK-ES-1 (Ewing sarcoma, semi-adherent, top dose 10.24 µM) | 0.985 | > 10.2 µM
SK-GT-4 (oesophagus, adherent, top dose 10.24 µM) | 0.982 | > 10.2 µM
SK-HEP-1 (liver, adherent, top dose 10.24 µM) | 0.989 | > 10.2 µM
